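Following 48 hours of exposure in 96-well plates, responses at five concentrations were used to interpolate endpoints linearly. GI50: concentration for 50% inhibition of growth.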 A number of entries come with more than one value. The other results are left out here. An entry can have further records. For some assays here: The tests behind the records often covered other concentration ranges, not given here; some values may only mark the edge of a range.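 TGI denotes the concentration required for complete inhibition of growth.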 For some assays here: Values that stand side by side repeat one measurement across runs, samples, wells, individuals or studies. Records carry a tag for their origin. A, B and so on number the origins entry by entry.

Consider four compounds from PubChem BioAssay (NCI).

Among the test systems are DU-145 prostate; HT29 colon; SF-268 CNS; SNB-19 CNS; SR leukemia; SW-620 colon; TK-10 renal; A549 NSCLC; CCRF-CEM leukemia; M14 melanoma; MCF7 breast; NCI-H460 lung; NCI-H522 lung; PC-3 prostate; SK-MEL-5 melanoma; UACC-257 melanoma; UACC-62 melanoma; NCI-H23 lung; OVCAR-4 ovarian.
What all share (assay): NCI anticancer screen, dose series, 48 h

Consider `O=[N+]([O-])c1cccc2nc3ccccc3c(NCCNCCO)c12`, for which the TGI was 12.7 nM and 12.4 µM in the assay on DU-145 prostate; 26.2 nM and 421 nM in the assay on HT29 colon; 6.55 nM and 103 nM in the assay with SF-268 CNS; 1.04 µM and 69.4 nM in the assay with SNB-19 CNS; 159 nM and > 100 µM in the assay with SR leukemia; 315 nM and 10.4 µM in the assay on SW-620 colon. In the assay with TK-10 renal, the TGI is 582 nM and 41 nM.

For `CCOC(=O)C(Cc1c[nH]c2cc([N+](=O)[O-])ccc12)(NC(C)=O)C(=O)OCC`, the GI50 was 58.9 µM [1 test] and > 1 mM [mean of 2 tests] with A549 NSCLC; 17.8 µM [1 test] and > 1 mM [mean of 2 tests] with CCRF-CEM leukemia; 38.2 µM [1 test] and > 1 mM [mean of 2 tests] with MCF7 breast; 93.3 µM [1 test] and > 1 mM [mean of 2 tests] in the assay on NCI-H460 lung; 59.6 µM and > 1 mM with NCI-H522 lung; 27.8 µM [1 test] and > 1 mM [mean of 2 tests] with PC-3 prostate. For the same compound, the GI50 was 11.1 µM [1 test] and > 1 mM [mean of 2 tests] in the assay with SK-MEL-5 melanoma; 23.8 µM [1 test] and > 1 mM [mean of 2 tests] with UACC-257 melanoma; 63.7 µM [1 test] and > 741 µM [mean of 2 tests] in the assay on UACC-62 melanoma. Besides, the TGI is 83 µM [1 test] and > 1 mM [mean of 2 tests] in the assay with CCRF-CEM leukemia; 21.7 µM [1 test] and > 1 mM [mean of 2 tests] with M14 melanoma; 37.9 µM [1 test] and > 1 mM [mean of 2 tests] in the assay with SK-MEL-5 melanoma.

For the compound `Cc1c(CN2CCC(Nc3ncnc4sc(CC(F)(F)F)cc34)CC2)ccc2c1cc(C#N)n2Cc1cn[nH]c1`, the TGI with UACC-257 melanoma is 4.68 µM [sample A, 1 test] and > 100 µM [sample B, 1 test].

On to `CCN(CC)CCCC(C)Nc1cnc(C(=O)Nc2cc(F)cc3cccnc23)cn1` (stereo not drawn), for which the TGI in the assay with NCI-H23 lung is 26.6 µM [sample A, 1 test] and 1.94 µM [sample B, mean of 2 tests]; in the assay with OVCAR-4 ovarian, 13.2 µM [sample A, 1 test] and 1.3 µM [sample B, mean of 2 tests]; in the assay on SR leukemia, 7.58 µM [sample A, 1 test] and > 100 µM [sample B, mean of 2 tests].
